From article PMC6212790
Some of the results follow. At the low end of the ranking the order means little.

These sequences were tested against T1, GST-Rok-C97-191 (UniProt O34857) (assay: protein binding microarray). Conditions: Rok is a gene silencer of Bacillus subtilis; high values mean tight binding; most listed sequences are background and not binding sites; double strand, one strand shown.
T1 sequence: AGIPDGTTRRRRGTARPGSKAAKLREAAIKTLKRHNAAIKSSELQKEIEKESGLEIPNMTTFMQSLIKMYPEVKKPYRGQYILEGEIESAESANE
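Further: rank score from −0.5 (least bound) to 0.5 (best bound).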

Row | Sequence | binding signal [E-score]
1 | AGAGGTTG | -0.0137
2 | AGGAGCGG | -0.128
3 | GAGACTTA | -0.17
4 | GGGGCCAC | -0.307
5 | AGCTACTA | 0.378
6 | ACAAGCCC | -0.119
7 | CCATAGTA | 0.207
8 | CTTTAGAA | 0.0135
9 | CTATGTAA | 0.289
10 | AGATAAAC | 0.216
11 | GTATTGCA | 0.174
12 | ACCGCTTG | -0.107
13 | CTCCACAG | -0.18
14 | ATCTCGAG | 0.136
15 | AACGCATT | 0.0482
16 | CAGCCGGC | -0.219
17 | CACTGCGA | 0.123
18 | CCTCGCGC | -0.28
19 | GAGGGGCA | -0.256
20 | CTCACTAA | 0.0203
21 | AGAGGGTC | -0.353
22 | CTGAAGTA | 0.147
23 | ATCAGTAG | 0.285
24 | CTAGTCTA | 0.197
25 | CGCCCTAC | 0.0104

Row | Sequence | binding signal [E-score]
26 | CCGTGAAC | -0.0699
27 | GCACATCA | 0.0204
28 | AGCCGAGG | -0.0773
29 | ATACGACC | 0.00262
30 | AATACGAA | 0.0453
31 | CCAGTCCA | 0.0334
32 | AGATTGCA | 0.0596
33 | CCTTGACG | -0.169
34 | CAGGAAGA | -0.127
35 | CAAACCAC | -0.131
36 | AAGATAGT | 0.243
37 | TGTGGGAA | -0.075
38 | AAGTACAC | 0.275
39 | AATCGGCC | 0.0325
40 | CCACACGG | -0.148
41 | GGACCGCA | -0.213
42 | TACTGGAA | 0.157
43 | GAGCATGC | -0.135
44 | CGAACCGC | -0.141
45 | GAGAAATC | 0.0248
46 | CTTAGTGC | -0.0654
47 | ACACACGG | -0.216
48 | AATAATTG | 0.0816
49 | CATAGACA | -0.0183
50 | AAAGAAAT | -0.0989

Row | Sequence | binding signal [E-score]
51 | GAAATGAA | 0.00977
52 | CTTCCAGC | -0.0613
53 | CTGAGCGA | 0.00947
54 | CCGAACCG | -0.32
55 | GAGTCGCA | -0.162
56 | ATTACTAA | 0.326
57 | CGAGTGCG | -0.0584
58 | CTGTAGGA | 0.118
59 | ACCAAGAG | -0.149
60 | ATCCAGTC | -0.0969
61 | CCTGCCGC | -0.386
62 | ATAGGCGA | -0.00979
63 | TACAGCAA | 0.0466
64 | GAAGATGC | -0.0628
65 | GAGTGCCA | -0.218
66 | CAAAGGGC | -0.206
67 | CCTCGATC | -0.126
68 | GCAGAGAC | -0.236
69 | CGGAGCAG | -0.201
70 | CTAAACAG | -0.177
71 | CTTCTGGA | -0.138
72 | CCCGGCGG | -0.32
73 | AAGGTAAA | 0.107
74 | AGGGAAGC | -0.268
75 | GCAAAAAC | 0.0468

Row | Sequence | binding signal [E-score]
76 | ACTTGGAT | 0.0828
77 | AGGAAAGC | -0.231
78 | CAACCATG | -0.0768
79 | AATTTAAT | 0.321
80 | CTAACCGA | -0.169
81 | ATACTCTA | 0.206
82 | ATTTGAGC | -0.175
83 | AGCCCCGG | -0.386
84 | ACAGCTCC | -0.0848
85 | ATCAGCCC | -0.226
86 | ATTCATGA | 0.0548
87 | CTGTCACA | -0.144
88 | CTCAACAA | -0.199
89 | AGGCTTAG | -0.213
90 | GAGTTCGA | -0.09
91 | CTACCGAG | 0.236
92 | ATAGCCGG | -0.056
93 | GGTCGGGA | -0.255
94 | GTTGGGGA | -0.0942
95 | CCCGGTAC | -0.0654
96 | ACTGTTCT | -0.0975
97 | AGGAGAGA | -0.000748
98 | CGCAATAA | -0.0268
99 | ATATCACG | 0.157
100 | CTGTCGAA | -0.0758

Row | Sequence | binding signal [E-score]
101 | ACCCCACT | -0.171
102 | TACGTTCA | 0.085
103 | GTTGTTCA | 0.105
104 | CGGTCCAC | -0.206
105 | GGGAGGAA | -0.0773
106 | CCACTGAG | -0.0835
107 | GAGTCGAA | -0.145
108 | CTCTCGGA | -0.0508
109 | CATAAGCG | -0.222
110 | CTTGTATA | 0.18
111 | ACGCCTCA | -0.108
112 | CAACTGTG | 0.0396
113 | CTCCGCCA | -0.237
114 | GCACCTCC | -0.227
115 | ATCTGTTC | -0.118
116 | ACCAACTA | 0.161
117 | GCAGACGC | -0.208
118 | ATCGCAAA | 0.0121
119 | AGCAATTC | 0.115
120 | GGTAATAC | 0.268
121 | CCCGTAAA | 0.12
122 | GCATCAAC | 0.0173
123 | CGAGTCGA | -0.0343
124 | CAATTCGC | -0.0316
125 | ATAGCTCC | -0.0632

Row | Sequence | binding signal [E-score]
126 | AGCTCTAA | -0.0978
127 | CTATGCTC | -0.0315
128 | ACGATGGG | 0.00184
129 | TATCACGA | 0.139
130 | AGTCACAA | 0.034
131 | CAACCTAA | -0.167
132 | GCATCCCC | -0.165
133 | ACGGATTC | 0.136
134 | CCATGCTC | -0.204
135 | CCATCATC | -0.133
136 | GAATTGCA | -0.135
137 | AGAACACC | -0.0349
138 | CTAAAACC | -0.00998
139 | CCATAGCC | -0.307
140 | ACACCGGT | -0.0234
141 | CGGATTGA | -0.00596
142 | AGTCGTGA | -0.0621
143 | ATGCTGGG | -0.124
144 | GGCCCTGA | -0.152
145 | CGTGTTTC | -0.14
146 | AGTATCCC | -0.0158
147 | TATGCATA | 0.126
148 | CCGCTAGA | 0.1
149 | AGGGTCCC | -0.127
150 | GGAAGACA | -0.258

Row | Sequence | binding signal [E-score]
151 | AAGATACT | 0.285
152 | ATGGTTCC | 0.00181
153 | CGAGTCAG | -0.162
154 | AACTGAAC | 0.106
155 | TGATCAAA | 0.0322
156 | AGCCTTAT | -0.11
157 | CGGCTTCC | -0.254
158 | ATGTTATC | 0.139
159 | ATACACAC | 0.00608
160 | AAAGGCCG | -0.286
161 | GAGCCAAA | -0.195
162 | CCTCCAAC | -0.157
163 | CCGCTCTC | -0.292
164 | AATCCAGG | -0.117
165 | CTCCTCTA | -0.0219
166 | AGGTCGGG | -0.237
167 | CTTATTGC | -0.0468
168 | AGATGATA | 0.237
169 | AACATTGC | 0.181
170 | CATGCCAG | -0.171
171 | CACAAAAC | -0.0127
172 | AGCTATTG | 0.145
